# Test results from PubChem BioAssay (Tox21).
# This list was built around the results that the source calls inconclusive (neither active nor inactive); the mix of calls is not that of the screen. Entries that show only a call come without a potency. Potencies beside an inconclusive call are fits to weak or partial responses and may not hold up. Calls of active or inactive are those of the source. The call rests on the fitted dose curve; in most records, active means well fitted curve in the direction sought with a large enough effect in the repeat runs; inconclusive means weak or mixed curves; inactive means no such curve, though single readings can be large; an effect the other way counts as inactive or inconclusive.
# Experiments:
# [1] = qHTS assay to identify small molecule agonists of the RXR signaling pathway - cell viability counter screen (AID 1159529); conditions: RXR-alpha-bla HEK293T viability, CellTiter-Glo, 16 h; series mostly up to 76.8 µM; further: nearly all actives have a fitted effect of over 50% in size
# Method in brief: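 Steps: seed RXR-alpha-UAS-bla HEK 293T cells in assay medium containing 2% charcoal-stripped FBS; incubate 5 hr; add compounds in DMSO; incubate 16 hr at 37 C; after the bla read, add CellTiter-Glo and read luminescence at 30 min.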
# [2] = qHTS assay to identify small molecule antagonists of the retinoic acid receptor (RAR) signaling pathway (AID 1159552; further: nearly all actives have a fitted effect of over 50% in size); conditions: C3RL4 RARE luciferase reporter, retinol-stimulated, 6 h; series mostly up to 92.4 µM
# Method in brief: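 Retinol at 1 uM final stimulated RARE-luciferase expression in C3RL4 cells exposed to test compounds for 6 hr at 37 C. Reduced luminescence, read 30 min after detection reagent, indicated pathway antagonism.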
# [3] = qHTS assay to identify small molecule antagonists of the retinoid acid receptor (RAR) signaling pathway - cell viability counter screen (AID 1159551); conditions: C3RL4 cells viability, ATP luminescence (CellTiter-Glo), 6 h; series mostly up to 92.4 µM; further: nearly all actives have a fitted effect of over 35% in size
# Method in brief: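 In this counter screen, the RARE-luciferase line C3RL4 was exposed for 6 h at 37 C and 5% CO2 to compounds with retinol at 1 uM final. Cellular ATP, read by luminescence, served as the viability measure.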
# [4] = qHTS assay to identify small molecule agonists of the retinoic acid receptor (RAR) signaling pathway (AID 1159553); conditions: C3RL4 RARE luciferase reporter, agonist, 6 h; activation: at 73.3 µM (top of the series) unless noted
# Method in brief: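 In this cell-based screen, 1,000 C3RL4 cells per well were cultured overnight, dosed with test chemicals in DMSO for 6 hr, and assessed for RARE luciferase luminescence.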
# Potency means the concentration at half of the fitted maximal effect; tags describe the fitted curve by direction and shape.
structure (smiles),measurement,setting,value
COc1cc2c(N3CCN(C(=O)Nc4ccc(OC(C)C)cc4)CC3)ncnc2cc1OCCCN1CCCCC1,Potency,[1],"inconclusive: 7.56 µM [cytotoxic, partial curve, poor fit]"
same,Potency,[2],"inconclusive: 29.8 µM [inhibitor, partial curve]"
CC(C)(C)C(=O)C(Oc1ccc(Cl)cc1)n1ccnc1 (centres undefined),Potency,[1],inactive
same,Potency,[3],inactive
same,activation,[4],inconclusive: 3.71% [phenotype inactive]
Nc1ccc(N)c2c1C(=O)c1ccccc1C2=O,Potency,[1],"inconclusive: 4.36 µM [cytotoxic, full curve]"
same,Potency,[3],active: 30.6 µM
same,Potency,[4],"inconclusive: 2.73 µM [activator, full curve, poor fit]"
CC/C=C/CCCCCCCCCCOC(C)=O,Potency,[1],inactive
same,Potency,[4],inactive
CCOC(=O)C(O)c1ccccc1 (centres undefined),Potency,[1],inconclusive: 0.0007 µM
same,Potency,[2],inactive
CCCCCCOC(=O)CCC,Potency,[1],inactive
same,Potency,[2],inactive
same,Potency,[4],inactive
CC12CCC(CC1=O)C2(C)C (centres undefined),Potency,[3],"inconclusive: 26.8 µM [rising, single point]"
CC(CCl)OC(C)CCl (centres undefined),Potency,[3],inactive
CCN(CC)C(=O)c1ccc(O)c(OC)c1,Potency,[1],inactive
same,Potency,[3],inconclusive: 0.0008 µM
c1ccc(-c2nc3ccccc3[nH]2)cc1,Potency,[3],"inconclusive: 61.1 µM [cytotoxic, partial curve]"
CCN(CC)c1cccc(C)c1,Potency,[3],inactive
Cn1cnc2c(F)c(Nc3ccc(Br)cc3Cl)c(C(=O)NOCCO)cc21,Potency,[3],inactive
CCCCC(=O)O[C@]1(C(=O)CO)CC[C@H]2[C@@H]3CCC4=CC(=O)CC[C@]4(C)[C@H]3[C@@H](O)C[C@@]21C,Potency,[1],inconclusive: 21.3 µM [cytotoxic]
same,Potency,[4],inactive
